Source: paper PMC9166750 (Scientific Reports, 2022)
Positions count from the first letter of the chain named.

Key:
Conditions in all cases: both partners purified
[1] = molecular target: T1, syntaxin-3b cytoplasmic domain (residues 1–264) with C-terminal Avi-tag, T14E phosphomimetic mutant (mouse, UniProt Q64704-2 1-264, T14E, Alexa 488 (NHS ester) at the N-terminal primary amino group in the anisotropy assays; biotin (NHS-biotin) at the N-terminal primary amino group in the pull-downs); experiment: pull-down; syntaxins biotinylated at the N-terminal amino group on neutravidin agarose beads; about 300 μg Munc18-1 incubated 1 h, washed, then 500 μg SNAP-25A 1 h at room temperature, washed with TBS; SDS-PAGE, Coomassie, Munc18-1 and SNAP-25 bands normalised to the syntaxin bands (ImageJ)
T1 construct: syntaxin-3b (splice isoform 3b of syntaxin-3), cytoplasmic domain, residues 1-264, with T14E; Made from the syntaxin-3b construct with the QuickChange Kit; also called syntaxin-3b T14E; source: E. coli BL21 (DE3*), purified (Ni-NTA, TEV cleavage, HiTrap Q); not shown: His6, N-terminal, cleaved
T1 sequence (looked up): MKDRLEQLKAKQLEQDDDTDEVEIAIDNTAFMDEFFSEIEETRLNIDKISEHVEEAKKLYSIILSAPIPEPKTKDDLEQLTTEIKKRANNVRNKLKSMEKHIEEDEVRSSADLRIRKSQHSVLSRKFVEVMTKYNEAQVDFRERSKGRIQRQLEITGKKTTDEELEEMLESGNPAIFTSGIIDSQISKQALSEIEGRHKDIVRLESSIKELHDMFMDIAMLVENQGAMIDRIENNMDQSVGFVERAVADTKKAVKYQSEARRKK

[2] = molecular target: T2, syntaxin-3b cytoplasmic domain (residues 1–264) with C-terminal Avi-tag, wild type (mouse, UniProt Q64704-2 1-264, Alexa 488 (NHS ester) at the N-terminal primary amino group in the anisotropy assays; biotin (NHS-biotin) at the N-terminal primary amino group in the pull-downs); experiment: fluorescence polarisation; bulk fluorescence anisotropy; Alexa 488-labelled syntaxin about 0.5 μM in TBS (20 mM Tris pH 7.5, 150 mM NaCl, 0.5 mM TCEP), unlabelled SNAP-25A 0-0.900 μM, about 15 min at room temperature, 96 well plate; curves fit with Hill equations to estimate Kd
T2 construct: syntaxin-3b (splice isoform 3b of syntaxin-3), cytoplasmic domain, residues 1-264; Gene synthesized and inserted into pJ414 (ATUM); The two native cysteines lie in the transmembrane region, which the Avi-tag replaces; also called SX-3b; WT syntaxin-3b; source: E. coli BL21 (DE3*), purified (Ni-NTA, TEV cleavage, HiTrap Q); not shown: His6, N-terminal, cleaved
T2 sequence (looked up): T1 sequence (looked up) with E14T

[3] = molecular target: T3, syntaxin-3b cytoplasmic domain (residues 1–264) with C-terminal Avi-tag, LE mutant (L165A, E166A) (mouse, UniProt Q64704-2 1-264, L165A | E166A, Alexa 488 (NHS ester) at the N-terminal primary amino group in the anisotropy assays; biotin (NHS-biotin) at the N-terminal primary amino group in the pull-downs); experiment: as above
T3 construct: syntaxin-3b (splice isoform 3b of syntaxin-3), cytoplasmic domain, residues 1-264, with L165A and E166A; Made from the syntaxin-3b construct with the QuickChange Kit; also called syntaxin-3b LE; source: E. coli BL21 (DE3*), purified (Ni-NTA, TEV cleavage, HiTrap Q); not shown: His6, N-terminal, cleaved
T3 sequence (looked up): T1 sequence (looked up) with E14T, L165A, E166A

[4] = molecular target: T1, syntaxin-3b cytoplasmic domain …; experiment: as above

B1: SNAP-25, full length (natural protein)
chain: not shown
notes: Cloned into pTEV5; also called SNAP-25A; source: E. coli BL21 (DE3*), purified (Ni-NTA, TEV cleavage, HiTrap Q); not shown: His6, N-terminal, cleaved
[1]
  fold increase of binary t-SNARE complex formation against WT syntaxin-3b, in the presence of Munc18-1: ~3 fold
[2]
  Kd: ~316 nM
[3]
  Kd: 76 nM
[4]
  Kd: 171 nM
